Experimental data as given in PubChem BioAssay AID588855 (National Center for Advancing Translational Sciences (NCATS), 2011).
Out of some 410,000 compounds screened, about 5,000 (1.2%) were called active. Inconclusive means that the source gave no clear call. Such entries were picked first, then a sample of the others. Calls come from the whole dose curve; as a rule, active = well fitted inhibition curve with a large enough effect; inconclusive = small, poorly fitted or top-dose-only effect; inactive = no such curve, though single readings can be large or run the other way. Where the call is inconclusive, the potency comes from a doubtful curve fit.

experiment: qHTS for Inhibitors of TGF-b; conditions: HepG2 CAGA-GFP TGF-b/SMAD3 reporter, GFP fluorescence, 18 h, TGF-beta stimulated, 500 pg/mL final; series mostly up to 46.1 µM; note: nearly all actives have a fitted effect of over 65% in size
How it was run: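 Inhibition was scored as loss of TGF-beta-induced (500 pg/mL final, 18 hours, 37 degrees C) GFP in HEPG2 cells carrying a CAGA-GFP reporter, in DMEM with 1% FBS. Well GFP was summed per cell; Activity was normalised to unstimulated and stimulated DMSO wells, then concentration-response fitting.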
Potency is the fitted concentration of half-maximal effect; tags give direction and shape of the fitted curve.

Question: With `S=C(Nc1ccccc1)c1ccccn1` as the compound, how does the Potency read?
Answer: active: 11.2 µM

Question: For `O=C(N/N=C/c1cc2c(cc1Br)OCO2)c1ccccn1`, which Potency is on record?
Answer: inactive

Question: With `Cc1cc2oc3ccc(NCCCn4ccnc4)cc3c(=O)c2cc1C` as the compound, how does the Potency read?
Answer: inactive

Question: For `O=[N+]([O-])c1ccccc1/C=N/NC1=NCCN1`, which Potency is on record?
Answer: inactive

Question: With `NCCSc1c(-c2ccc(Cl)cc2)[nH]c2ccccc12` as the compound, how does the Potency read?
Answer: inconclusive: 14.1 µM [inhibitor, partial curve, poor fit]

Question: For `Cc1cc(C)cc(Oc2ccccc2/C=N\O)c1`, which Potency is on record?
Answer: inconclusive: 15.8 µM [inhibitor, single point]

Question: For `OC[C@@H]1[C@@H](c2ccccc2)C(c2cccc(Cl)c2)=NN1c1ccccc1`, which Potency is on record?
Answer: inconclusive: 20 µM [inhibitor, partial curve, poor fit]

Question: For `CC[n+]1c(/C=C2/C=C(C)CC(C)(C)C2)sc2ccc(OC)cc21`, which Potency is on record?
Answer: inconclusive: 35.5 µM [inhibitor, single point]

Question: For `C/C(=N\N=C(N)N)c1cccc([N+](=O)[O-])c1`, which Potency is on record?
Answer: inactive

Question: With `Cc1ccc(-c2c(C)n3c4c(=O)n(C)c(=O)n(C)c4nc3n2CCCO)cc1` as the compound, how does the Potency read?
Answer: inconclusive: 22.4 µM [inhibitor, single point]

Question: With `O=C(CSc1nc2c([nH]c3ccccc32)c(=O)n1-c1ccccc1)Nc1ccccc1F` as the compound, how does the Potency read?
Answer: inconclusive: 12.6 µM [inhibitor, partial curve, poor fit]

Question: With `O=C(NC(NNc1ccc([N+](=O)[O-])cc1)(C(F)(F)F)C(F)(F)F)c1ccc(Cl)cc1` as the compound, how does the Potency read?
Answer: inconclusive: 20 µM [inhibitor, single point]

Question: Which Potency does the source give for `Cc1cc(C)n(-c2nc(C(F)(F)F)nc3ccccc23)n1` here?
Answer: inactive

Question: With `CCOc1ccc(OCC(=O)c2c(O)c3ccccc3oc2=O)cc1` as the compound, how does the Potency read?
Answer: inactive

Question: For `O=C(O)Cn1nc(-c2ccccc2)oc1=O`, which Potency is on record?
Answer: inactive

Question: Which Potency does the source give for `O=C1c2ccccc2C(Nc2cccnc2)N1Cc1ccccc1Cl` (stereo not drawn) here?
Answer: inconclusive: 17.8 µM [inhibitor, single point]

Question: With `CNS(=O)(=O)c1ccc(CNC[C@H]2O[C@@H](n3cc(C)c(=O)[nH]c3=O)C[C@@H]2O)cc1` as the compound, how does the Potency read?
Answer: inconclusive: 0.562 µM [inhibitor, full curve]

Question: Which Potency does the source give for `Cc1cc(Nc2cccc(O)c2)c2cccc(Br)c2n1` here?
Answer: inconclusive: 35.5 µM [inhibitor, single point]

Question: With `CCOC(=O)c1cc(CC)sc1/N=C/C1=C(O)CCCC1=O` as the compound, how does the Potency read?
Answer: inconclusive: 7.08 µM [inhibitor, full curve]

Question: With `Cc1ccc(CNS(=O)(=O)c2c(C(=O)N3CCC(C)CC3)c(C)n(C)c2C)cc1` as the compound, how does the Potency read?
Answer: inactive

Question: Which Potency does the source give for `Cc1ccc(NS(=O)(=O)c2ccc(-n3cccn3)cc2)nc1` here?
Answer: inactive

Question: With `CCOC(=O)C#CC(CCc1ccccc1)OS(N)(=O)=O` (stereo not drawn) as the compound, how does the Potency read?
Answer: active: 0.708 µM

Question: With `O=C(NCCCCCCNC(=O)N1CCCCCC1)N1CCCCCC1` as the compound, how does the Potency read?
Answer: inconclusive: 35.5 µM [inhibitor, single point]

Question: With `Cc1ccc(NC(=S)NC(=O)C2CCCC2)c(Br)c1` as the compound, how does the Potency read?
Answer: inconclusive: 12.6 µM [inhibitor, single point]

Question: For `COc1cccc(CN2CCN(Cc3nc(-c4cccs4)oc3C)CC2CCO)c1` (stereo not drawn), which Potency is on record?
Answer: inconclusive: 35.5 µM [inhibitor, single point]

Question: For `COc1ccc(N2CC(NC(=O)NCCC(C)C)CC2=O)cc1` (stereo not drawn), which Potency is on record?
Answer: inactive

Question: Which Potency does the source give for `O=C(/C=C/c1cn(CC(O)CN2CCc3ccccc32)c2ccccc12)c1ccc(Br)cc1` (stereo not drawn) here?
Answer: inconclusive: 12.6 µM [inhibitor, single point]

Question: With `Cc1ccc(-n2ncc3c2CC(C)(C)CC3NC(=O)c2ccccn2)cc1` (stereo not drawn) as the compound, how does the Potency read?
Answer: inconclusive: 35.5 µM [inhibitor, single point]

Question: Which Potency does the source give for `CCc1nc2c(OCCC3CCCCC3)cccn2c1N(C)C(=O)C(C)C` here?
Answer: inconclusive: 35.5 µM [inhibitor, single point]

Question: With `O=C(/C=C1\NC2(CCCC2)Cc2ccccc21)N1CCOCC1` as the compound, how does the Potency read?
Answer: inconclusive: 25.1 µM [inhibitor, single point]

Question: For `NC(=O)C1CCN(C(=O)c2cc(Cl)c3c(c2)OCCO3)CC1`, which Potency is on record?
Answer: inactive

Question: For `Cc1ccccc1OCCNc1cc(N2CC(C)NC(C)C2)ccc1[N+](=O)[O-]` (stereo not drawn), which Potency is on record?
Answer: inconclusive: 17.8 µM [inhibitor, single point]

Question: Which Potency does the source give for `CCOc1ccc(CCNC(=O)c2cccs2)cc1OCC` here?
Answer: inactive

Question: Which Potency does the source give for `COc1cc(/C=C2\SC(=O)N(CCN)C2=O)ccc1OS(=O)(=O)c1cc(C)ccc1C` here?
Answer: inconclusive: 35.5 µM [inhibitor, single point]

Question: Which Potency does the source give for `NC(=O)c1ccsc1NC(=O)COC(=O)c1cnccn1` here?
Answer: inactive

Question: For `CCCCn1c(N)c(N(CC)C(=O)c2cc(S(=O)(=O)N3CCCCCC3)ccc2OC)c(=O)[nH]c1=O`, which Potency is on record?
Answer: inconclusive: 35.5 µM [inhibitor, single point]

Question: With `COCCNc1nc(SCC(=O)N2CCN(c3ccccc3OC)CC2)nc2ccccc12` as the compound, how does the Potency read?
Answer: inconclusive: 2.51 µM [inhibitor, partial curve, poor fit]

Question: Which Potency does the source give for `CCc1nc(N2CCN(S(=O)(=O)c3ccc(Br)cc3)CC2)c2c(C)c(C)sc2n1` here?
Answer: inconclusive: 35.5 µM [inhibitor, single point]

Question: With `Cn1cccc1/C=C1\SC(=Nc2cccc(O)c2)NC1=O` as the compound, how does the Potency read?
Answer: inconclusive: 10 µM [inhibitor, partial curve]

Question: Which Potency does the source give for `O=C(COC(=O)CCSc1ccc(F)cc1)NCc1ccc(F)cc1` here?
Answer: inconclusive: 35.5 µM [inhibitor, single point]

Question: For `COc1ccc(OC)c(/C=N/NC(=O)c2[nH]ncc2Br)c1`, which Potency is on record?
Answer: inactive

Question: With `COc1ccc(-c2cc(C(F)(F)F)nc(SCC(=O)Nc3ccc(C(C)=O)cc3)n2)cc1` as the compound, how does the Potency read?
Answer: inconclusive: 3.98 µM [inhibitor, full curve, poor fit]

Question: For `COC(=O)c1ccccc1NC(=O)COc1ccc2c(c1)OCO2`, which Potency is on record?
Answer: inconclusive: 5.62 µM [inhibitor, single point]

Question: Which Potency does the source give for `Cc1nn(-c2ccc(C(=O)N3CCN(S(=O)(=O)c4ccccc4C(F)(F)F)CC3)cc2)c(C)c1Cl` here?
Answer: inconclusive: 8.91 µM [inhibitor, partial curve]

Question: Which Potency does the source give for `CC(C)n1c(=NC(=O)c2ccco2)c(C#N)cc2c(=O)n3ccccc3cc21` here?
Answer: inconclusive: 25.1 µM [inhibitor, single point]

Question: For `CCc1cc(=O)[nH]c(SCc2nc(-c3ccccc3C)no2)n1`, which Potency is on record?
Answer: inconclusive: 14.1 µM [inhibitor, single point]

Question: With `CN1C2=NCCN2C(=O)c2cc(Cl)ccc21` as the compound, how does the Potency read?
Answer: inconclusive: 5.62 µM [inhibitor, single point]

Question: With `COc1cc(C(=O)N(C)Cc2cccc(OC)c2OC)ccc1OCC(=O)Nc1cccc(C(F)(F)F)c1` as the compound, how does the Potency read?
Answer: inconclusive: 35.5 µM [inhibitor, single point]

Question: For `CCN(C[C@H]1N[C@@](CC)(C(=O)OC)[C@H]2C(=O)N(Cc3ccccc3)C(=O)[C@@H]12)C(=O)c1ccc(C(C)(C)C)cc1`, which Potency is on record?
Answer: inconclusive: 15.8 µM [inhibitor, single point]

Question: Which Potency does the source give for `O=C(OCC(=O)N1CCc2ccccc21)c1ccccc1[N+](=O)[O-]` here?
Answer: inactive

Question: For `CCOc1ccc(C(=O)NC(=S)NCc2cccnc2)cc1`, which Potency is on record?
Answer: inconclusive: 3.16 µM [inhibitor, single point]

Question: With `CC(C)(O)c1ccccc1CC[C@@H](SCC1(CC(=O)O)CC1)c1cccc(/C=C/c2ccc3ccc(Cl)cc3n2)c1` as the compound, how does the Potency read?
Answer: inconclusive: 35.5 µM [inhibitor, single point]

Question: With `CC(C)CN(C(=O)COC(=O)CSc1ccccc1F)c1c(N)n(Cc2ccccc2)c(=O)[nH]c1=O` as the compound, how does the Potency read?
Answer: inconclusive: 1.26 µM [inhibitor, full curve, poor fit]

Question: With `CCc1ccc(NC(=O)C2(C)Cc3ccccc3C(=O)O2)cc1` (stereo not drawn) as the compound, how does the Potency read?
Answer: inactive

Question: For `Cc1ccc(S(=O)(=O)NNC(=O)Nc2ccc(Cl)cc2)cc1`, which Potency is on record?
Answer: inconclusive: 15.8 µM [inhibitor, single point]

Question: For `Cc1ccccc1OCC(=O)Nc1ccc(Cc2ccncc2)cc1`, which Potency is on record?
Answer: inactive

Question: With `O=C(/C=C/c1ccccc1)OCCN1C(=O)c2ccccc2C1=O` as the compound, how does the Potency read?
Answer: inactive

Question: With `O=C(CCC(=O)Nc1ccc(Cl)cc1Cl)NNC(=O)[C@@H]1CCCC[C@@H]1C(=O)O` as the compound, how does the Potency read?
Answer: inconclusive: 1.26 µM [inhibitor, full curve, poor fit]

Question: With `Cc1ccc(NC(=S)NCc2ccc3c(c2)OCO3)c(C)c1` as the compound, how does the Potency read?
Answer: inactive

Question: For `CCOc1ccc(N2CC(C(=O)Nc3cccc(S(=O)(=O)N4CCCCC4)c3)CC2=O)cc1` (stereo not drawn), which Potency is on record?
Answer: inconclusive: 14.1 µM [inhibitor, single point]

Question: With `O=C1CC2(CCCCC2)CC(=O)N1CCc1ccccc1` as the compound, how does the Potency read?
Answer: inactive

Question: Which Potency does the source give for `CCCCCc1cc(=O)oc2c(C(CCN(CC)CC)c3cc(OC)c(OC)c(OC)c3)c(OC)cc(OC)c12` (stereo not drawn) here?
Answer: inconclusive: 35.5 µM [inhibitor, single point]

Question: Which Potency does the source give for `CCCCN(C(=O)C1=CC=CN2CCS(=O)(=O)N=C12)c1ccccc1` here?
Answer: inconclusive: 31.6 µM [inhibitor, single point]

Question: Which Potency does the source give for `O=C(CC1C(=O)N(c2ccccc2)C(=O)N1CCc1cccs1)Nc1ccc(Cl)cc1` (stereo not drawn) here?
Answer: inconclusive: 12.6 µM [inhibitor, partial curve, poor fit]

Question: For `Cc1c(C(=O)Nc2cccc(C(F)(F)F)c2)oc2ccc(S(=O)(=O)N(C)C3CCCCC3)cc12`, which Potency is on record?
Answer: inactive

Question: For `O=C(COc1ccccc1)NCC(=O)N/N=C/c1cccs1`, which Potency is on record?
Answer: inconclusive: 0.112 µM [inhibitor, full curve, poor fit]

Question: Which Potency does the source give for `COc1cccc(NC(=O)COC(=O)/C=C/c2c(C)nn(-c3ccccc3)c2C)c1` here?
Answer: inconclusive: 17.8 µM [inhibitor, partial curve, poor fit]

Question: With `O=C(Cc1ccc(NS(=O)(=O)c2ccc(F)cc2)cc1)NCc1ccccc1` as the compound, how does the Potency read?
Answer: inconclusive: 12.6 µM [inhibitor, single point]
